The whole screen tested about 280,000 compounds, of which about 540 (0.19%) were called active. Inconclusive means that the source gave no clear call. Such entries were picked first, then a sample of the others. Calls come from the whole dose curve; as a rule, active = well fitted activation curve with a large enough effect; inconclusive = small, poorly fitted or top-dose-only effect; inactive = flat fitted curve, though single readings scatter. A potency beside an inconclusive call is a rough fit, not a confirmed value.
test: Quantitative High-Throughput Screen for Regulators of Epigenetic Control; details: murine LDR cells, GFP reporter derepression, 30 h; GFP activation: at 53.9 µM (top of the series); note: nearly all actives have a fitted effect of over 60% in size; for GFP activation: % of control where 0% means no effect
In short: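 Reporter derepression read as number of fluorescent GFP-positive objects, 20-120 um in size, counted by laser-scanning cytometer. Mouse LDR line with an epigenetically silenced CMV-GFP locus; compound incubation 30 h, 37 C.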
Potency is the fitted concentration of half-maximal effect; tags give direction and shape of the fitted curve.

SMILES	Potency	GFP activation
Cc1ccccc1Cn1cc(NC(=O)c2cc(-c3ccco3)on2)cn1	inconclusive: 22.4 µM [activator, single point]	
CSc1nsc(/C=C/Nc2ccc(Cl)cc2)c1C#N	inconclusive: 25.1 µM [activator, single point]	
Cc1ccccc1Cn1cc(S(=O)(=O)c2ccc(Cl)cc2)c(=O)c2cc3c(cc21)OCO3		inactive: -1.99%
C=CCN1C(=O)C2(NNc3ccccc3O2)c2ccccc21 (stereo unspecified)	inconclusive: 35.5 µM [activator, single point]	
CNS(=O)(=O)c1cc(N)ccc1C	inconclusive: 14.1 µM [activator, partial curve]	
Cc1ccccc1NC(=S)NC(NC(=O)COc1ccccc1)C(Cl)(Cl)Cl (stereo unspecified)	inconclusive: 35.5 µM [activator, single point]	
CCCCNC(=O)C1CCN(S(=O)(=O)c2cc(Br)cc3c2N(C(=O)CC)CC3)CC1		inactive: -1.77%
CCCOc1ccc(C(=O)NC(=S)NNC(=O)c2c(-c3ccccc3)noc2C)cc1		inactive: -0.99%
CCOC(=O)CNC(=O)Nc1cc(C(=O)NCc2cccc(F)c2)ccc1N1CCCC1	inconclusive: 12.6 µM [activator, single point]	
CCOc1ccc(/C=C2\SC(=S)N(C)C2=O)cc1OC	inconclusive: 17.8 µM [activator, single point]	
COc1cc(C=C2C(=O)c3ccccc3C2=O)ccc1O	inconclusive: 17.8 µM [activator, single point]	
COc1ccc2c(c1)c1nc3ccccc3nc1n2Cc1ccc(OC)c(OC)c1	inconclusive: 31.6 µM [activator, single point]	
CC(=O)Nc1cc(OC(C)=O)c2nonc2c1OC(C)=O		inactive: 8.74%
COc1ccc(C2CC(=O)c3cc(-c4nc(-c5ccc(Cl)cc5)c(C)s4)c(=O)[nH]c3C2)cc1 (stereo unspecified)	inconclusive: 31.6 µM [activator, single point]	
COC(=O)c1sc(N)c(C(=O)OC)c1COC(=O)CNS(=O)(=O)c1cccc(C#N)c1		inactive: -0.311%
CN(/N=C/c1cc([N+](=O)[O-])ccc1O)c1ccccc1	inconclusive: 28.2 µM [activator, single point]	
CC1=NN(C(=O)c2cc(C)nn2C)C(O)(C(F)(F)F)C1 (stereo unspecified)		inactive: 5.13%
Cc1cc(C)c(C(=O)COC(=O)c2ccc(NC(=O)CC#N)cc2)cc1C	inconclusive: 31.6 µM [activator, single point]	
COc1ccc(-c2nc3c(c4nnc(SC(C)C(=O)Nc5ccccc5)n24)COC(C)(C)C3)cc1 (stereo unspecified)	inconclusive: 35.5 µM [activator, single point]	
CCOC(=O)c1c(NC(=O)/C=C/c2ccc(C(C)C)cc2)sc2c1CCC2		inactive: -1.59%
COc1ccc(-n2cnnc2SCc2ncc(-c3ccccc3)o2)cc1		inactive: -3.9%
CCOC(=O)C1=NN(c2ccccc2C)C2=NC(C)=C(C(=O)OC)C(c3cccc(OC)c3)N12 (stereo unspecified)	inconclusive: 12.6 µM [activator, partial curve]	
Cc1ccc(C(=O)NC(C#N)=C(Cl)Cl)cc1	inconclusive: 1.41 µM [activator, partial curve]	

SMILES	Potency	GFP activation
COc1ccc(CNc2nc(SCc3ccc(Cl)cc3)nc3ccccc23)cc1		inactive: -1.3%
CNC(=O)NC(=O)C(C)OC(=O)CCCc1nc2ccccc2s1 (stereo unspecified)	inconclusive: 8.91 µM [activator, partial curve]	
CCOc1ccc(N2CC(NC(=O)C(=O)c3c[nH]c4ccccc34)CC2=O)cc1 (stereo unspecified)		inactive: -0.111%
COc1cc(OC)cc(-c2n[nH]c(=S)n2-c2ccc3c(c2)OCO3)c1		inactive: 0.971%
C=CCn1c(SCc2cc(=O)n3ccsc3n2)nc2sc(C)c(C)c2c1=O	inconclusive: 15.8 µM [activator, single point]	
CCOc1ccc(NC(=O)CSC2=Nc3ccccc3C3=NC(CCC(=O)NCc4ccccc4)C(=O)N23)cc1 (stereo unspecified)	inconclusive: 25.1 µM [activator, single point]	
CCCCOc1ccc(-c2nn(-c3ccccc3)cc2C2NC(=O)NC(C)=C2C(=O)OCC)cc1 (stereo unspecified)		inactive: -1.99%
Cc1ccc(C)c(-n2c(-c3ccc(Br)cc3)csc2=NC(=O)c2ccccc2F)c1		inactive: 1.08%
COc1ccccc1/C=N/NC(=S)Nc1cccnc1	inconclusive: 35.5 µM [activator, single point]	
Cc1ccc(/C=C2\SC(=S)N(Cc3ccccc3)C2=O)o1	inconclusive: 25.1 µM [activator, single point]	
O=C(c1[nH]ncc1-c1ccccc1)C1CO1 (stereo unspecified)	inconclusive: 25.1 µM [activator, single point]	
COc1ccc(-c2ccc(CCC(=O)O)n2CC(C)C)cc1		inactive: 1.42%
COCCNC(=O)c1cc(-c2ccc3c(c2)OCO3)on1		inactive: -0.901%
O=C(CSc1nc2cc(C(=O)NC3CCCC3)ccc2c(=O)n1CC1CCCO1)c1cccc(Cl)c1 (stereo unspecified)	inconclusive: 35.5 µM [activator, single point]	
CCCCC1=CC2=C(c3ccco3)C(=O)C(C)(OC(=O)c3ccc(OC)cc3)C(=O)C2=CN1Cc1ccccc1 (stereo unspecified)	active: 17.8 µM	
Cc1cc(OCCCCCn2ccnc2)cc(C)c1Cl	inconclusive: 17.8 µM [activator, single point]	
CCOC(=O)c1c(NC(=O)C(C)Sc2cn(CCNC(=O)c3c(F)cccc3F)c3ccccc23)sc2c1CCC2 (stereo unspecified)		inactive: -1.08%
CCC(CC)c1nnc(NC(=O)c2ccc3ccccc3n2)s1	inconclusive: 12.6 µM [activator, single point]	
CNC(=O)c1c(N)sc2c1CCCCC2		inactive: 0.962%
Cc1ccc(/C=C/C(=O)N2CCN(S(=O)(=O)/C=C/c3ccccc3)CC2)o1		inactive: -1.25%
Cc1c(CCC(=O)NCCc2ccccc2)c(=O)oc2c(C)c(O)ccc12	inconclusive: 12.6 µM [activator, single point]	
COc1cc(NC(=O)CSc2nnc(C)n3c2cc2oc(C)cc23)cc(OC)c1	inconclusive: 14.1 µM [activator, single point]	
Cc1c2cnn(CC(=O)NCc3ccc(F)cc3)c(=O)c2c(C)n1Cc1cccc(Cl)c1	inconclusive: 12.6 µM [activator, single point]	

Reference: PubChem BioAssay AID1865 (National Center for Advancing Translational Sciences (NCATS), 2009)
